Several values for one entry are separate records, joined by “and”; a condition that tells them apart may be missing. Equal values may be shown once. About 64,000 (15%) of roughly 420,000 compounds were called active. This list was built around the results that the source calls inconclusive (neither active nor inactive); the mix of calls is not that of the screen. The call rests on the fitted dose curve; in most records, active means well fitted inhibition curve with a large enough effect; inconclusive means small, poorly fitted or top-dose-only effect; inactive means flat fitted curve, though single readings scatter. Where the call is inconclusive, the potency comes from a doubtful curve fit.
experiment: qHTS for Inhibitors of human tyrosyl-DNA phosphodiesterase 1 (TDP1): qHTS in cells in absence of CPT; conditions: DT40 Tdp1-/- hTDP1 cells, no CPT, ATP luminescence, 48 h; activity change, negative = growth inhibition: at 46.2 µM (top of the series) unless noted; further: nearly all actives have a fitted effect of over 55% in size
Procedure, shortened: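 A cellular qHTS used chicken DT40 cells lacking endogenous Tdp1 but carrying stably transfected human TDP1. Compounds were applied without camptothecin, and cell growth kinetics were judged by ATP-dependent luminescence after ≥48 hr.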
On the % scale 0 is the no-effect control and ±100 the full control effect; potency means the concentration at half of the fitted maximal effect; tags describe the fitted curve by direction and shape.

| SMILES | activity change, negative = growth inhibition | Potency |
| --- | --- | --- |
| Cc1ccc(CNC(=O)C2CCN(S(=O)(=O)c3ccc(Br)s3)CC2)cc1 | inconclusive: -31.8% [inhibitor] | – |
| Cc1cc(S(=O)(=O)C(CNC(=O)c2ccc(F)c(F)c2)c2cccs2)ccc1F (stereo unspecified) | inactive: -2.59% | – |
| Cc1cc(NC(=O)COc2ccc(C(C)(C)C)cc2)no1 | inactive: -12.2% | – |
| COc1cccc(-c2cccc(NC(=O)C3CCN(CCCn4cccn4)CC3)c2)c1 | – | inconclusive: 29.1 µM [inhibitor, single point] |
| Cc1nc2sc3c(c2c(=O)o1)CCC3 | inconclusive: -32.1% [inhibitor] | – |
| Cc1ccc(NC(=O)c2ccccc2O)cc1 | – | inconclusive: 20.6 µM [inhibitor, partial curve] |
| Cc1ccc2[nH]c(=O)c(CN(Cc3ccccc3Cl)C(=O)N3CCOCC3)cc2c1 | – | active: 20.6 µM |
| COc1cc(OC)c(C2C3=C(CCCC3=O)Nc3nc4ccccc4n32)cc1OC (stereo unspecified) | inconclusive: -32.6% [inhibitor] | – |
| Cc1cccc(OCC(=O)NC2CCCCCC2)c1C | – | inconclusive: 29.1 µM [inhibitor, single point] |
| COc1ccc(Nc2oc(COc3ccc(OC)cc3)nc2C#N)cc1 | – | inconclusive: 14.6 µM [inhibitor, single point] |
| Cc1ccc2cccc(OCCCOc3ccccc3F)c2n1 | – | inconclusive: 29.1 µM [inhibitor, single point] |
| CC1(C(=O)NS(=O)(=O)c2ccccc2Cl)CCN1C(=O)Cc1cccc2ccccc12 (stereo unspecified) | inactive: -0.462% | – |
| CC(C)(C)c1csc(N(CCC#N)CCC#N)n1 | inactive: -20.5% | – |
| CC(C)(C)c1cc(C(=O)O)n(Cc2ccc(Cl)cc2Cl)n1 | inactive: -13.1% | – |
| COc1cc(/C=N/n2cnnc2)ccc1OC(=O)c1ccncc1 | – | inconclusive: 14.6 µM [inhibitor, single point] |
| CN(c1ccccc1)S(=O)(=O)c1cccc(NC(=O)CCNC(=O)c2ccco2)c1 | – | inconclusive: 29.1 µM [inhibitor, single point] |
| Cc1cc(C)c2c(CC(=O)Nc3ccc(S(=O)(=O)Nc4nc(C)cc(C)n4)cc3)coc2c1 | – | inconclusive: 29.1 µM [inhibitor, single point] |
| CCCCN(C)CCCNC(=O)c1cc(-c2cccs2)nc2ccccc12 | – | active: 29.1 µM |
| CN(c1ccccc1)S(=O)(=O)c1cc(C(=O)OCC(=O)c2c(N)n(C)c(=O)n(C)c2=O)ccc1Cl | – | inconclusive: 23.1 µM [inhibitor, single point] |
| COc1cc(/C=N/NC(=O)c2cccnc2)ccc1OCC(=O)Nc1ccccc1Cl | inactive: -25.2% | – |
| COC(=O)Nc1ccc(S(=O)(=O)N2CCCC(C(=O)N3CCC(C)CC3)C2)cc1 (stereo unspecified) | – | inconclusive: 29.1 µM [inhibitor, single point] |
| COc1ccc(Nc2nc(N)nc(CN3CCC(Cc4ccccc4)CC3)n2)cc1 | – | inconclusive: 29.1 µM [inhibitor, single point] |
| O=C(NC1CCCC1)c1n[nH]c2ccccc12 | inactive: -1.33% | – |
| O=C(CCl)N(C1CCCC1)C1CCS(=O)(=O)C1 (stereo unspecified) | – | active: 14.6 µM |

| SMILES | activity change, negative = growth inhibition | Potency |
| --- | --- | --- |
| Cn1c(N)c(C(=O)CSc2nn(-c3ccccc3)c(=S)s2)c(=O)n(C)c1=O | – | active: 16.4 µM |
| Cn1c(=O)c2nc(-c3ccccc3)oc2c2ccccc21 | – | active: 16.4 µM |
| CCN(CC)CCCN=C1N[C@@H](c2cccc(F)c2)C(C(=O)OC)=C(C)N1Cc1ccccc1 | – | inconclusive: 11.6 µM [inhibitor, partial curve, poor fit] |
| CCC(=O)N1CCN(c2ccc(NC(=S)NC(=O)c3cccc([N+](=O)[O-])c3)cc2)CC1 | – | inconclusive: 25.9 µM [inhibitor, single point] |
| Cn1c(-c2ccccc2F)cc2onc(-c3ccccc3)c2c1=O | – | inconclusive: 16.4 µM [inhibitor, single point] |
| c1ccc(CNc2nc(-c3ccccn3)nc3ccccc23)cc1 | – | active: 3.66 µM |
| CSc1ccccc1NC(=O)Cn1c([N+](=O)[O-])cnc1C | inactive: 13.5% | – |
| O=C(NCC(c1cccs1)N1CCOCC1)C1CCN(S(=O)(=O)c2cccc(C(F)(F)F)c2)CC1 (stereo unspecified) | – | inconclusive: 29.1 µM [inhibitor, single point] |
| Cc1ccc(NC(=O)C(=O)NCC(c2cccnc2)N2CCN(Cc3ccccc3)CC2)cc1F (stereo unspecified) | – | active: 5.8 µM |
| COc1ccc(-c2[nH]c(-c3ccc(Cl)cc3)nc2SCC(=O)NCC2CCCO2)cc1 (stereo unspecified) | – | active: 7.31 µM |
| c1cnn(-c2cc(N3CCOCC3)ncn2)c1 | inconclusive: -2.46% [inhibitor] | – |
| CCCCn1cnc2cc(NCc3ccccc3Cl)ccc21 | – | inconclusive: 29.1 µM [inhibitor, single point] |
| O=C(COC(=O)c1ccncc1)c1ccccc1 | inactive: -1.61% | – |
| Cc1ccc(-n2ncc3c(Nc4cccc(C(=O)O)c4)ncnc32)cc1 | – | inactive and inconclusive: 18.4 µM [inhibitor, single point] |
| O=C(Nc1ccccc1N1CCN(C(=O)c2ccccc2)CC1)c1ccco1 | – | inconclusive: 20.6 µM [inhibitor, single point] |
| Cc1nc2ccc(NS(=O)(=O)c3cccc([N+](=O)[O-])c3)cc2s1 | – | active: 14.6 µM |
| Nc1nn(-c2cccc(F)n2)cc1-c1ccccc1 | – | inconclusive: 29.1 µM [inhibitor, single point] |
| Cc1cccc(NS(=O)(=O)c2cc3c(cc2C)NC(=O)CO3)c1 | – | inconclusive: 29.1 µM [inhibitor, single point] |
| CCC(CC)NC(=O)Nc1ccc(F)c(Cl)c1 | – | inconclusive: 23.1 µM [inhibitor, single point] |
| Cn1cc([C@]2(O)C(=O)Nc3c(F)cccc32)c2ccccc21 | inactive: -6.39% | – |
| Cc1nn(Cc2ccc(F)cc2)c(C)c1NC(=O)c1cccnc1Cl | inactive: 0.0616% | – |
| CC(C)[C@H](NC(=O)[C@@H]1Cc2c([nH]c3ccccc23)C2c3ccccc3C(=O)N21)C(=O)NCC1CCCO1 (stereo partly specified) | – | inconclusive: 29.1 µM [inhibitor, single point] |
| Cc1csc(CN(C)C(=O)c2cn(Cc3cccc4ccccc34)nn2)n1 | – | inconclusive: 20.6 µM [inhibitor, partial curve, poor fit] |
| Cc1ccc(C(=O)N(c2ccccn2)C(C)c2ccco2)cc1 (stereo unspecified) | – | inconclusive: 29.1 µM [inhibitor, single point] |

| SMILES | activity change, negative = growth inhibition | Potency |
| --- | --- | --- |
| CCOCCCNC(=O)c1ccc(-n2c(-c3ccccc3)cc3c2CCC(C)C3)cc1 (stereo unspecified) | – | inconclusive: 18.4 µM [inhibitor, single point] |
| COc1ccc(NC(=O)c2cc(=O)c3ccccc3o2)cc1Cl | inactive: -13.5% | – |
| Cc1nn2c(SCC(=O)c3cccs3)cc(C(C)(C)C)nc2c1-c1ccccc1 | – | inconclusive: 18.4 µM [inhibitor, single point] |
| Cc1n[nH]c(C)c1CCc1nc2c3ccccc3nc(SCC(N)=O)n2n1 | inactive: -8.28% | – |
| CSc1nnc(-c2cc3c(-c4ccccc4)nn(C)c3s2)n1C | – | active: 23.1 µM |
| COc1ccc(NC(=O)C2CCCN(S(=O)(=O)c3cccc4cccnc34)C2)c(OC)c1 (stereo unspecified) | – | inconclusive: 25.9 µM [inhibitor, single point] |
| O=C(CC(=O)N/N=C/c1c(Cl)cccc1Cl)NCc1cccnc1 | inactive: -15.5% | – |
| N#C/C(=C\c1ccc2c(c1)OCCO2)C(=O)Nc1ccc(C(=O)O)cc1 | inactive: 10.4% | – |
| COc1ccc(-c2csc3ncnc(Nc4cccc(OC)c4)c23)cc1 | – | inconclusive: 29.1 µM [inhibitor, single point] |
| CC1CCCC(C)N1S(=O)(=O)c1ccc(NC(=O)CNC2CCCC2)cc1 (stereo unspecified) | – | inconclusive: 29.1 µM [inhibitor, single point] |
| CC(=O)N=c1c(C#N)cc2c(=O)n3ccccc3nc2n1CCCOC(C)C | – | inconclusive: 18.4 µM [inhibitor, single point] |
| CCOc1ccc2nc(SCC(=O)N(C)C)[nH]c2c1 | inactive: -10.1% | – |
| O=C(NCC(c1cccs1)N1CCOCC1)c1ccccc1NS(=O)(=O)c1ccc(Cl)c([N+](=O)[O-])c1 (stereo unspecified) | – | inconclusive: 18.4 µM [inhibitor, single point] |
| Cc1ccc2c(c1)C(c1ccc(F)cc1)N(C(=O)c1ccc(S(=O)(=O)N3CCCCC3)cc1)CC(=O)N2 (stereo unspecified) | – | inconclusive: 29.1 µM [inhibitor, single point] |
| Cc1ccc(/C=C/C(=O)N2CCN(c3cccc(C(F)(F)F)c3)CC2)cc1 | inactive: -7.49% | – |
| CC(=O)N1c2ccc(S(=O)(=O)N3CCCC3C(=O)NCc3ccc(Cl)cc3)cc2CC1C (stereo unspecified) | – | inconclusive: 9.2 µM [inhibitor, partial curve] |
| CC1=C(C(=O)OC2CCCCCCC2)C(c2cccc(O)c2)NC(=O)N1 (stereo unspecified) | – | inconclusive: 16.4 µM [inhibitor, partial curve, poor fit] |
| Nc1ncnc2c1ncn2[C@@H]1O[C@H](C(=O)N2CCN(Cc3ccccn3)CC2)[C@@H](O)[C@H]1O | inactive: 1.88% | – |
| O=C(COc1coc(CN2CCN(c3ccccc3F)CC2)cc1=O)NC1CCCC1 | – | inconclusive: 16.4 µM [inhibitor, single point] |
| COc1ccc(C(=O)Nc2ccc3nc(SCC(=O)N4CCc5ccccc54)sc3c2)cc1 | – | active: 5.17 µM |
| Cc1cc(=O)oc2cc(NC(=O)c3cccc(Br)c3)ccc12 | – | inconclusive: 8.2 µM [inhibitor, partial curve] |
| O=C(C1CCCN(S(=O)(=O)c2ccccc2)C1)N1CCN(c2ccccc2)CC1 (stereo unspecified) | – | inconclusive: 25.9 µM [inhibitor, single point] |
| CCCCn1nc(NS(=O)(=O)c2cccc3nonc23)c2cc3cccc(C)c3nc21 | – | inconclusive: 29.1 µM [inhibitor, single point] |

From PubChem BioAssay AID686978 (National Center for Advancing Translational Sciences (NCATS), 2013)
